This is one part of the list. At the low end of the ranking the order means little.

The target in this assay is GST-SBP-SLBP (stem-loop binding protein) (UniProt Q14493). As to the kind of experiment: targeted RNA Bind-n-Seq.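 Note: DESeq read counts versus GST-SBP nonspecific binding control pulldown.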 The note with it: RBNS binding buffer: 25 mM Tris pH 7.5, 150 mM KCl, 3 mM MgCl2, 0.1% Tween, 0.5 mg/mL BSA, 1 mM DTT; 27 nM protein, 750 pM RNA pool; temperature not stated; high values mean tight binding.
Regarding “GGUCACGUCUCAAUCAACUCUACUUCAGGAGUUUACUCCUGUUAUUUCAACAGCUCGCAGUCAAG”, the binding signal (log2 fold change) was -0.34.
On to “GGUCACGUCUCAAUCAACUCUACGCCAGGAGUUUUCUCCUGUAAUCUCAACAGCUCGCAGUCAAG”, for which the binding signal (log2 fold change) was 0.103.
For “GGUCACGUCUCAAUCAACUCAAUUUCCAGGGAAAGCCCUGGCUAACUCAACAGCUCGCAGUCAAG”, the binding signal (log2 fold change) was -0.0418.
As for “GGUCACGUCUCAAUCAACUCUUCUUCCAGGGAAACCCCUGGUUUUUUCAACAGCUCGCAGUCAAG”, the binding signal (log2 fold change) was -0.329.
On to “GGUCACGUCUCAAUCAACUCAGUCCCCAGGGAAAUCCCUGGCAUUUUCAACAGCUCGCAGUCAAG”, for which the binding signal (log2 fold change) was -0.0492.
Consider “GGUCACGUCUCAAUCAACUCAAUCCCAGGAGUUUCCUCCUGCAAUCUCAACAGCUCGCAGUCAAG”, for which the binding signal (log2 fold change) was determined as 0.178.
As to “GGUCACGUCUCAAUCAACUCAGUCUCCAGGGAAAACCCUGGUUAAUUCAACAGCUCGCAGUCAAG”, the binding signal (log2 fold change) is -0.165.
The same measure for “GGUCACGUCUCAAUCAACUCAAUAGAGGGGGGGAAAACCCCUUUACCCUCAUUAUCAACAGCUCGCAGUCAAG”: 0.128; for “GGUCACGUCUCAAUCAACUCAAUUUCCAGGGAAAGCCCUGGCAUACUCAACAGCUCGCAGUCAAG”: -0.0457.
In the case of “GGUCACGUCUCAAUCAACUCUUUCUCCAGGGAAACCCCUGGUAUACUCAACAGCUCGCAGUCAAG”, the binding signal (log2 fold change) is 0.258.
Next, “GGUCACGUCUCAAUCAACUCAUCUCCAGGAGUUUGCUCCUGUAUUCUCAACAGCUCGCAGUCAAG”: 0.0375.
Take “GGUCACGUCUCAAUCAACUCAAUCGAGGGGGGGAAAACCCCUUUGCCCUCAUCUUCAACAGCUCGCAGUCAAG”: the binding signal (log2 fold change) was found to be 0.419.
On to “GGUCACGUCUCAAUCAACUCUUCCCCAGGAGUUUCCUCCUGUAUUCUCAACAGCUCGCAGUCAAG”, for which the binding signal (log2 fold change) worked out at 0.144.
Take “GGUCACGUCUCAAUCAACUCAUCGGCCAGGGAAAACCCUGGGAAUCUCAACAGCUCGCAGUCAAG”: the binding signal (log2 fold change) is -0.194.
As for “GGUCACGUCUCAAUCAACUCUUCUCCAGGAGUUUCCUCCUGCAUUUUCAACAGCUCGCAGUCAAG”, the binding signal (log2 fold change) is -0.0682.
For “GGUCACGUCUCAAUCAACUCUCACGAGGGGGGGAAAACCCCUUUACCCUCAUUUUCAACAGCUCGCAGUCAAG”, the binding signal (log2 fold change) stood at 0.246.
For the sequence “GGUCACGUCUCAAUCAACUCUUUUCCAGGAGUUUUCUCCUGUUAUGUCAACAGCUCGCAGUCAAG”, the binding signal (log2 fold change) stood at 0.00957.
As for “GGUCACGUCUCAAUCAACUCUUCCUCCAGGGAAAGCCCUGGCUUUUUCAACAGCUCGCAGUCAAG”, the binding signal (log2 fold change) amounted to 0.0355.
Take “GGUCACGUCUCAAUCAACUCUAUUUCAGGAGUUUUCUCCUGCAUUUUCAACAGCUCGCAGUCAAG”: the binding signal (log2 fold change) is -0.0466.
Consider “GGUCACGUCUCAAUCAACUCUCCAGAGGGGGGGAAAACCCCUUUGCCCUCCAAAUCAACAGCUCGCAGUCAAG”, for which the binding signal (log2 fold change) stood at 0.296.
For “GGUCACGUCUCAAUCAACUCUAGUCCAGGAGUUUACUCCUGUUUAUUCAACAGCUCGCAGUCAAG”, the binding signal (log2 fold change) worked out at 0.313.
In the case of “GGUCACGUCUCAAUCAACUCAUUCUCAGGAGUUUACUCCUGCUUUGUCAACAGCUCGCAGUCAAG”, the binding signal (log2 fold change) worked out at 0.0546.
“GGUCACGUCUCAAUCAACUCAUCCUCCAGGGAAAGCCCUGGCUUACUCAACAGCUCGCAGUCAAG”: the binding signal (log2 fold change) is -0.151.
As for “GGUCACGUCUCAAUCAACUCUUUUUCCAGGGAAACCCCUGGCUAAUUCAACAGCUCGCAGUCAAG”, the binding signal (log2 fold change) is -0.0162.
The same measure for “GGUCACGUCUCAAUCAACUCAUCGCCAGGAGUUUCCUCCUGUUUACUCAACAGCUCGCAGUCAAG”: 0.238; for “GGUCACGUCUCAAUCAACUCUUUCCCCAGGGAAAACCCUGGCAAACUCAACAGCUCGCAGUCAAG”: -0.0981.
Next, “GGUCACGUCUCAAUCAACUCAAUCUCCAGGGAAAACCCUGGCUAUCUCAACAGCUCGCAGUCAAG”: -0.135.
“GGUCACGUCUCAAUCAACUCUAUGGCAGGAGUUUACUCCUGGAAAUUCAACAGCUCGCAGUCAAG”: the binding signal (log2 fold change) worked out at 0.0366.
As to “GGUCACGUCUCAAUCAACUCAUUUUCAGGAGUUUGCUCCUGUAAUUUCAACAGCUCGCAGUCAAG”, the binding signal (log2 fold change) came to 0.249.
As for “GGUCACGUCUCAAUCAACUCUAUCCCCAGGGAAAUCCCUGGUUAAUUCAACAGCUCGCAGUCAAG”, the binding signal (log2 fold change) is -0.163.
Regarding “GGUCACGUCUCAAUCAACUCAAUUCCAGGAGUUUACUCCUGUUAAUUCAACAGCUCGCAGUCAAG”, the binding signal (log2 fold change) is -0.0372.
Next, “GGUCACGUCUCAAUCAACUCUUUCCCCAGGGAAAGCCCUGGCAUAUUCAACAGCUCGCAGUCAAG”: -0.0742.
The same measure for “GGUCACGUCUCAAUCAACUCAUUUUCCAGGGAAAGCCCUGGCAGUCUCAACAGCUCGCAGUCAAG”: -0.188; for “GGUCACGUCUCAAUCAACUCUUCUUCCAGGGAAAUCCCUGGCAUGUUCAACAGCUCGCAGUCAAG”: -0.0837.
The same measure for “GGUCACGUCUCAAUCAACUCUUUCCCCAGGGAAAACCCUGGUAUUCUCAACAGCUCGCAGUCAAG”: 0.178; for “GGUCACGUCUCAAUCAACUCUAUCCCAGGAGUUUUCUCCUGUAUUUUCAACAGCUCGCAGUCAAG”: -0.119; for “GGUCACGUCUCAAUCAACUCUAACGAGGGGGGGAAAACCCCUUUACCCUCUACAUCAACAGCUCGCAGUCAAG”: -0.091.
For “GGUCACGUCUCAAUCAACUCCCAAGAGGGGGGGAAAACCCCUUUACCCUCCAAUUCAACAGCUCGCAGUCAAG”, the binding signal (log2 fold change) is -0.052.
Consider “GGUCACGUCUCAAUCAACUCUUCUCCAGGAGUUUACUCCUGCAAUCUCAACAGCUCGCAGUCAAG”, for which the binding signal (log2 fold change) was -0.0321.
Next, “GGUCACGUCUCAAUCAACUCUUCCUCAGGAGUUUCCUCCUGUUAAUUCAACAGCUCGCAGUCAAG”: -0.0711; “GGUCACGUCUCAAUCAACUCUUCUCCAGGAGUUUCCUCCUGUAUUCUCAACAGCUCGCAGUCAAG”: -0.0369; “GGUCACGUCUCAAUCAACUCUUUUCCCAGGGAAACCCCUGGUAAUCUCAACAGCUCGCAGUCAAG”: 0.108.
As for “GGUCACGUCUCAAUCAACUCUUCUUCAGGAGUUUACUCCUGCAAUCUCAACAGCUCGCAGUCAAG”, the binding signal (log2 fold change) was -0.0236.
As for “GGUCACGUCUCAAUCAACUCAUUCGAGGGGGGGAAAACCCCUUUACCCUCAACCUCAACAGCUCGCAGUCAAG”, the binding signal (log2 fold change) turned out to be 0.208.
As for “GGUCACGUCUCAAUCAACUCUAAAGAGGGGGGGAAAACCCCUUUACCCUCAAUGUCAACAGCUCGCAGUCAAG”, the binding signal (log2 fold change) came out at 0.277.
With “GGUCACGUCUCAAUCAACUCAUCCCCAGGAGUUUCCUCCUGUAUUCUCAACAGCUCGCAGUCAAG”, the binding signal (log2 fold change) amounted to 0.141.
Consider “GGUCACGUCUCAAUCAACUCUUCAGAGGGGGGGAAAACCCCUUUACCCUCGUCCUCAACAGCUCGCAGUCAAG”, for which the binding signal (log2 fold change) is -0.111.
“GGUCACGUCUCAAUCAACUCUUUCUCAGGAGUUUACUCCUGCUAAUUCAACAGCUCGCAGUCAAG”: the binding signal (log2 fold change) is -0.0714.
In the case of “GGUCACGUCUCAAUCAACUCUUCUUCCAGGGAAAUCCCUGGUUUUUUCAACAGCUCGCAGUCAAG”, the binding signal (log2 fold change) is -0.269.
For “GGUCACGUCUCAAUCAACUCUCUAGAGGGGGGGAAAACCCCUUUGCCCUCCAUGUCAACAGCUCGCAGUCAAG”, the binding signal (log2 fold change) was -0.575.
As for “GGUCACGUCUCAAUCAACUCUAUCUCAGGAGUUUACUCCUGUUAUCUCAACAGCUCGCAGUCAAG”, the binding signal (log2 fold change) was found to be 0.162.
As to “GGUCACGUCUCAAUCAACUCUUAAGAGGGGGGGAAAACCCCUUUACCCUCGCCUUCAACAGCUCGCAGUCAAG”, the binding signal (log2 fold change) came out at 0.0688.
The same measure for “GGUCACGUCUCAAUCAACUCUUUUUCCAGGGAAAACCCUGGCUAUUUCAACAGCUCGCAGUCAAG”: 0.0486; for “GGUCACGUCUCAAUCAACUCUUUAGAGGGGGGGAAAACCCCUUUGCCCUCACCGUCAACAGCUCGCAGUCAAG”: -0.311.
For “GGUCACGUCUCAAUCAACUCUUACGAGGGGGGGAAAACCCCUUUACCCUCUCAAUCAACAGCUCGCAGUCAAG”, the binding signal (log2 fold change) was -0.0643.
Take “GGUCACGUCUCAAUCAACUCCCUGGAGGGGGGGAAAACCCCUUUACCCUCAUAUUCAACAGCUCGCAGUCAAG”: the binding signal (log2 fold change) was -0.118.
For the sequence “GGUCACGUCUCAAUCAACUCAAUUUCAGGAGUUUACUCCUGUAUACUCAACAGCUCGCAGUCAAG”, the binding signal (log2 fold change) is -0.00414.
The same measure for “GGUCACGUCUCAAUCAACUCUUUCCCCAGGGAAAACCCUGGCAUACUCAACAGCUCGCAGUCAAG”: -0.0541.
Turning to “GGUCACGUCUCAAUCAACUCAACUCCAGGAGUUUCCUCCUGUUAUUUCAACAGCUCGCAGUCAAG”, the binding signal (log2 fold change) was -0.12.
With “GGUCACGUCUCAAUCAACUCAAUCGAGGGGGGGAAAACCCCUUUACCCUCUUCAUCAACAGCUCGCAGUCAAG”, the binding signal (log2 fold change) turned out to be 0.277.
Next, “GGUCACGUCUCAAUCAACUCUUUUCCCAGGGAAAGCCCUGGCAUUUUCAACAGCUCGCAGUCAAG”: -0.0609; “GGUCACGUCUCAAUCAACUCAUCCUCCAGGGAAAACCCUGGUAUAUUCAACAGCUCGCAGUCAAG”: 0.00412.
Take “GGUCACGUCUCAAUCAACUCUUUCUCCAGGGAAAACCCUGGUAAUUUCAACAGCUCGCAGUCAAG”: the binding signal (log2 fold change) is -0.0355.
As to “GGUCACGUCUCAAUCAACUCCUAAGAGGGGGGGAAAACCCCUUUACCCUCAAACUCAACAGCUCGCAGUCAAG”, the binding signal (log2 fold change) was -0.114.
Take “GGUCACGUCUCAAUCAACUCAAGUCCAGGAGUUUUCUCCUGUUAUCUCAACAGCUCGCAGUCAAG”: the binding signal (log2 fold change) came to 0.00716.
Turning to “GGUCACGUCUCAAUCAACUCAGUCUCCAGGGAAAGCCCUGGUAAAUUCAACAGCUCGCAGUCAAG”, the binding signal (log2 fold change) is -0.267.
With “GGUCACGUCUCAAUCAACUCAACUUCCAGGGAAAGCCCUGGUAUUUUCAACAGCUCGCAGUCAAG”, the binding signal (log2 fold change) is -0.0671.
“GGUCACGUCUCAAUCAACUCGUCUUCAGGAGUUUACUCCUGCAAAUUCAACAGCUCGCAGUCAAG”: the binding signal (log2 fold change) is -0.0447.
Next, “GGUCACGUCUCAAUCAACUCAACUCCAGGAGUUUUCUCCUGUUUAUUCAACAGCUCGCAGUCAAG”: 0.0125; “GGUCACGUCUCAAUCAACUCCCAAGAGGGGGGGAAAACCCCUUUGCCCUCAAUUUCAACAGCUCGCAGUCAAG”: -0.0635.
Next, “GGUCACGUCUCAAUCAACUCAUUCUCCAGGGAAACCCCUGGUAAUCUCAACAGCUCGCAGUCAAG”: -0.0201; “GGUCACGUCUCAAUCAACUCAAUCCCAGGAGUUUACUCCUGUAUAGUCAACAGCUCGCAGUCAAG”: 0.0751.
Take “GGUCACGUCUCAAUCAACUCUAAUGAGGGGGGGAAAACCCCUUUACCCUCCAAUUCAACAGCUCGCAGUCAAG”: the binding signal (log2 fold change) is -0.304.
As for “GGUCACGUCUCAAUCAACUCAAUUCCCAGGGAAACCCCUGGUAUUUUCAACAGCUCGCAGUCAAG”, the binding signal (log2 fold change) was -0.267.

The record behind these values is PMC5892938.
